# Source: PubChem BioAssay AID504832 (National Center for Advancing Translational Sciences (NCATS), 2011)
# Hit rate of the full screen: of about 310,000 compounds, about 18,000 (5.8%) were called active. Inconclusive means that the source gave no clear call. Such entries were picked first, then a sample of the others. Calls come from the whole dose curve; as a rule, active = well fitted inhibition curve with a large enough effect; inconclusive = small, poorly fitted or top-dose-only effect, or another doubt; inactive = no such curve, though single readings can be large or run the other way. Potencies of inconclusive entries are left out as doubtful fits.
# Test: Primary qHTS for delayed death inhibitors of the malarial parasite plastid, 48 hour incubation
# Conditions: P. falciparum luciferase growth in erythrocytes; series mostly up to 28.7 µM; activity change, negative = inhibition: at the top concentration
# In short: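 Here the parasites carry a stable luciferase gene and grow inside erythrocytes in Albumax-based RPMI medium with compound for one erythrocytic cycle. Activity is scored as loss of luminescent signal.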
# % is set by controls: 0 for no effect and ±100 for the full control effect; potency is the fitted concentration of half-maximal effect; tags give direction and shape of the fitted curve.
SMILES,"activity change, negative = inhibition",Potency
Cc1ccc(-n2nnnc2C(Cl)(Cl)c2nnnn2-c2ccc(C)cc2)cc1,inactive: -18.9%,
COC(=O)c1ccc(-c2ccco2)n1Cc1nc(-c2ccc(OC)c(OC)c2)oc1C,,active: 13.1 µM
COc1ccc(/C=C(/NC(=O)c2ccc(C)cc2)C(=O)NCc2ccncc2)cc1,inactive: -0.257%,
CCCCOc1cccc(OCCCC)c1C(=O)Nc1cc(C)on1,,active: 2.08 µM
CN1C(=O)[C@@H]2C[C@@]3([C@@]45C[C@H]6C(=O)N(C)[C@@H](Cc7ccccc7)C(=O)N6[C@@H]4Nc4ccccc45)c4ccccc4N[C@H]3N2C(=O)[C@@H]1Cc1ccccc1,,active: 11.7 µM
NC(=O)c1cccnc1Nc1ccccc1Cl,inactive: 55.7%,
COc1ccccc1N1CCN(C(=O)c2cc(C(C)(C)C)oc2C)CC1,,"inconclusive [inhibitor, partial curve, poor fit]"
O=C(O)c1cccc(-n2nc(-c3ccc(Cl)c([N+](=O)[O-])c3)c3ccccc3c2=O)c1,,"inconclusive [inhibitor, single point]"
CCCC(=O)Nc1cc(C(F)(F)F)ccc1N1CCOCC1,,"inconclusive [inhibitor, partial curve, poor fit]"
O=C(COC(=O)c1ccccc1Nc1ccccc1)Nc1ccccc1,inactive: -5.27%,
Cc1cc([N+](=O)[O-])ccc1NCc1cccc([N+](=O)[O-])c1,,"inconclusive [inhibitor, single point]"
COc1ccc(C(=O)Nc2ccccc2C(=O)NC(Cc2ccc(O)cc2)C(=O)NNC(=O)c2ccc(C)cc2)cc1 (stereo not given),,"inconclusive [inhibitor, single point]"
Cc1nc2c(ccc3nc(NC(=O)Cc4cccc5ccccc45)sc32)s1,,"inconclusive [inhibitor, single point]"
OC(CNCc1ccc(F)cc1)(c1ccc(F)cc1)c1ccc(F)cc1,,"inconclusive [inhibitor, full curve]"
COc1ccc(Cl)cc1C(=O)C1CCCN(Cc2cnc(N3CCOCC3)s2)C1 (stereo not given),,"inconclusive [inhibitor, single point]"
Cc1ccc(Cl)cc1NC(=O)CCC(=O)NCc1ccco1,inactive: 0.85%,
CSc1nc(SC(C)C(=O)O)c2c3c(sc2n1)COC(C)(C)C3 (stereo not given),inactive: -4.15%,
C#CCOCCOCCOCCNc1nc(N2CCN(C(=O)Cn3cc(CCCN=C(N)N)nn3)CC2)nc(N2CCN(C(=O)[C@H]([C@@H](C)CC)n3cc(CCCN=C(N)N)nn3)CC2)n1,,active: 1.17 µM
Nc1c(-c2ccc(Cl)cc2)cnc2ncnn12,,"inconclusive [inhibitor, single point]"
O=C(OCCN1CCCCC1)c1ccc(O)cc1,inactive: 6.41%,
CCO[C@H]1OC(C(=O)N2CCN(C)CC2)=C[C@@H](c2ccc(C(F)(F)F)cc2)[C@@H]1CCCO,,"inconclusive [inhibitor, partial curve, poor fit]"
Cc1ccc(-c2cc(-c3ccc(C)cc3)[n+](C)o2)cc1,,active: 1.17 µM
O=C(N/N=C/c1cccs1)C1CC(=O)N(c2ccccc2)C1 (stereo not given),,"inconclusive [inhibitor, partial curve, poor fit]"
CCN(CC)c1ccc(NC(=O)CSc2nnc3nc(C)cc(C)n23)cc1,,"inconclusive [inhibitor, full curve]"

SMILES,"activity change, negative = inhibition",Potency
Cc1cc[n+](C(C)C(=O)c2ccc(Cl)cc2)cc1 (stereo not given),,"inconclusive [inhibitor, partial curve]"
COC(=O)c1ccc(C23CC4(C2)[C@H](CN(C)[C@@H]4c2ccccc2)C3c2ccc(Cl)nc2)cc1 (stereo not given in full),,"inconclusive [inhibitor, single point]"
CCOc1ccc(S(=O)(=O)Nc2ncn[nH]2)cc1,inactive: 44%,
CC(C)(C)C(=O)N(Cc1ccc(Cl)cc1)Cc1cccnc1,,"inconclusive [inhibitor, single point]"
O=C(NC(Cc1ccccc1)C(=O)O)C1CCN(S(=O)(=O)c2ccccc2C(F)(F)F)CC1 (stereo not given),inactive: 31.8%,
O=S(=O)(c1ccc(S(=O)(=O)N2CCN(C3CCCCC3)CC2)cc1)N1CCCCCC1,inactive: 1.93%,
Cc1ccc2nc(CCl)[n+]([O-])c(-c3ccccc3)c2c1,inactive: 13.7%,
COc1ccc(NC(=O)c2cncc(Br)c2)cc1S(=O)(=O)N1CCCCC1,,"inconclusive [inhibitor, single point]"
CCCCNC(=O)Nc1nnc(-c2ccc(OCC)cc2)o1,,"inconclusive [inhibitor, single point]"
COc1ccc(-c2ccc(N(C)C)cc2)cc1[C@H]1[C@H]2C=CC[C@@H](C)[C@@H]2C(=O)N1Cc1ccccc1,,"inconclusive [inhibitor, partial curve, poor fit]"
c1ccc(CN2CCN(CCCNc3ccc4nnc(-c5ccccc5)n4n3)CC2)cc1,,"inconclusive [inhibitor, partial curve, poor fit]"
Cc1nnc(SCC(=O)c2ccc(S(=O)(=O)N3CCOCC3)cc2)n1-c1ccccc1,,"inconclusive [inhibitor, single point]"
COc1ccc(N(CC(=O)NCCSC2CCCCC2)S(=O)(=O)c2ccc(C)cc2)cc1,,"inconclusive [inhibitor, partial curve]"
COc1ccc(/C=C/C(=O)NC(=S)NNC(=O)c2cnccn2)cc1,,active: 2.08 µM
CCOC(=O)N1CCN(Cc2ccc3c(c2)OCO3)CC1,inactive: 12.1%,
CC(NS(=O)(=O)c1ccc(Br)cc1)C(c1cccs1)N1CCN(C)CC1 (stereo not given),inactive: -21.5%,
COc1cc(-c2nc(CCNC(=O)c3ccco3)cs2)cc(OC)c1OC,,"inconclusive [inhibitor, single point]"
O=Cc1cn(CCC(=O)O)nc1-c1cc2ccccc2o1,inactive: 71.6%,
O=[N+]([O-])/C(C(Cl)=C(Cl)Cl)=C1\Nc2ccccc2O1,inactive: 22.8%,
COc1ccc(OC)c(CNC(=O)Cn2nc(C)c3c(C)n(-c4ccc(C)cc4)nc3c2=O)c1,,"inconclusive [inhibitor, single point]"
COc1ccc(-c2csc(N3CCN(c4cc(C)nc5ccccc45)CC3)n2)cc1OC,,"inconclusive [inhibitor, partial curve]"
Clc1cccc(-c2nn3c(Cn4cnc5ccccc54)nnc3s2)c1,,active: 13.1 µM
Cc1cc(C)n2c(SCC(=O)N(C)C3CCCCC3)nnc2n1,inactive: -12.9%,
CCOc1ccc(CN2CCN(Cc3cccn3-c3ncccn3)CC2CCO)cc1 (stereo not given),,"inconclusive [inhibitor, full curve, poor fit]"

SMILES,"activity change, negative = inhibition",Potency
CN1CCN(CCNC(=O)Nc2ccc([N+](=O)[O-])cc2)CC1,,"inconclusive [inhibitor, partial curve, poor fit]"
COc1ccc(COc2cc(-c3cccc(OC)c3)nc3ccc(NC(=O)C(C)C)cc23)cc1,,"inconclusive [inhibitor, full curve]"
Fc1ccccc1/C=C1\CCCC2=C1NC(=S)NC2c1ccccc1F (stereo not given),,"inconclusive [inhibitor, single point]"
O=C(O)C1CCCN(S(=O)(=O)Cc2ccccc2)C1 (stereo not given),inactive: 38%,
Cc1ccc(S(C)(=O)=NS(=O)(=O)c2cccc3nsnc23)cc1 (stereo not given),inactive: -6.57%,
C=CCNc1nnc(SCC(=O)Nc2ccccc2OC)c2ccccc12,,"inconclusive [inhibitor, partial curve, poor fit]"
CC1CC(C)CN(CCOc2cccc3ccccc23)C1 (stereo not given),,"inconclusive [inhibitor, single point]"
Cc1ccc(-c2ccc(/C=N/NC(=S)Nc3ccccc3)o2)cc1[N+](=O)[O-],,"inconclusive [inhibitor, partial curve]"
Cc1c(Cl)cccc1NC(=S)N1CCN(S(=O)(=O)c2cccs2)CC1,,active: 1.85 µM
CC(=O)c1ccc(-c2nnc(CCC(=O)N(C)Cc3cccc4cnccc34)o2)s1,,"inconclusive [inhibitor, single point]"
O=C(Nc1ccccc1O)c1csc2c1CCCC2,,"inconclusive [inhibitor, single point]"
CCN(CC)S(=O)(=O)c1cc(NC(=O)CN2CCN(c3ccccn3)CC2)ccc1C,,"inconclusive [inhibitor, partial curve]"
C=CCNC(=S)Nc1nc2c(cc1C(=O)OCC)CCCC2,inactive: 60.3%,
O=C(CCCn1c(=S)[nH]c2ccc(Br)cc2c1=O)N1CCN(c2ccccn2)CC1,inactive: -22.2%,
CCC(C)c1ccc(C(C)NC(=S)NC2CCCCC2)cc1 (stereo not given),,active: 7.38 µM
COc1ccc(C(=O)C2CCCN(C(=O)c3cccc(Cl)c3F)C2)cc1OC (stereo not given),,"inconclusive [inhibitor, partial curve, poor fit]"
CCN(CC)CCNc1nc(-c2ccc(OC(F)F)cc2)c(C)s1,,"inconclusive [inhibitor, single point]"
CCOc1ccccc1C(=O)NC1CC2CCCC(C1)N2Cc1nnnn1Cc1ccco1 (stereo not given),,active: 11.7 µM
Cc1ccc(C(=O)COC(=O)c2ccco2)cc1C,inactive: 5.94%,
Cc1nn(C)c(C(=O)NC(=S)Nc2ccccc2O)c1Cl,,"inconclusive [inhibitor, single point]"
COc1ccc(C)cc1NC(=O)C(Sc1nnc(Nc2ccccc2F)s1)c1ccccc1 (stereo not given),inactive: -12.9%,
CCN(CC)c1nc(OCCNC(=O)Nc2ccccc2)nc(N(CC)CC)n1,,"inconclusive [inhibitor, single point]"
